{"source": "the antibiotic and cytotoxicity screens of Wong et al. (2023)", "key": {"HSkMC": {"tested_on": "HSkMC", "test": "cytotoxicity call (relative viability < 0.9)", "conditions": "10 µM"}, "HepG2": {"tested_on": "HepG2", "test": "cytotoxicity call (relative viability < 0.9)", "conditions": "10 µM"}, "S. aureus RN4220": {"tested_on": "S. aureus RN4220", "test": "growth inhibition call (relative growth <= 0.2)", "conditions": "50 µM"}}, "note": "The list shows a part of the results.", "data": [{"molecule": "C[C@H](CO)N1C[C@H](C)[C@H](CN(C)S(=O)(=O)c2ccc(C#N)cc2)Oc2ncc(C#Cc3ccc(F)cc3)cc2C1=O", "values": [{"measurement": "cytotoxicity call", "setting": "HSkMC", "value": "inactive"}, {"measurement": "cytotoxicity call", "setting": "HepG2", "value": "inactive"}, {"measurement": "growth inhibition call", "setting": "S. aureus RN4220", "value": "inactive"}]}, {"molecule": "CC(Cc1ccc(O)c(O)c1)C(C)Cc1ccc(O)c(O)c1", "note": "(stereo not given)", "values": [{"measurement": "cytotoxicity call", "setting": "HSkMC", "value": "inactive"}, {"measurement": "cytotoxicity call", "setting": "HepG2", "value": "inactive"}, {"measurement": "growth inhibition call", "setting": "S. aureus RN4220", "value": "inactive"}]}, {"molecule": "C[C@H](CO)N1C[C@H](C)[C@@H](CN(C)Cc2ccncc2)Oc2c(NS(=O)(=O)c3cccs3)cccc2C1=O", "values": [{"measurement": "cytotoxicity call", "setting": "HSkMC", "value": "inactive"}, {"measurement": "cytotoxicity call", "setting": "HepG2", "value": "inactive"}, {"measurement": "growth inhibition call", "setting": "S. aureus RN4220", "value": "inactive"}]}, {"molecule": "C[C@H](CO)N1C[C@H](C)[C@H](CN(C)Cc2ccc(Oc3ccccc3)cc2)Oc2c(NC(=O)NC3CCCCC3)cccc2C1=O", "values": [{"measurement": "cytotoxicity call", "setting": "HSkMC", "value": "inactive"}, {"measurement": "cytotoxicity call", "setting": "HepG2", "value": "active"}, {"measurement": "growth inhibition call", "setting": "S. aureus RN4220", "value": "inactive"}]}, {"molecule": "COc1ccc(S(=O)(=O)N(C)C[C@H]2Oc3ccc(NC(=O)Cn4cnnn4)cc3C(=O)N([C@H](C)CO)C[C@H]2C)cc1", "values": [{"measurement": "cytotoxicity call", "setting": "HSkMC", "value": "inactive"}, {"measurement": "cytotoxicity call", "setting": "HepG2", "value": "inactive"}, {"measurement": "growth inhibition call", "setting": "S. aureus RN4220", "value": "inactive"}]}, {"molecule": "CC(C)NC(=O)Nc1ccc2c(c1)C(=O)N([C@@H](C)CO)C[C@@H](C)[C@H](CN(C)S(=O)(=O)c1cn(C)cn1)OCCCC[C@H](C)O2", "values": [{"measurement": "cytotoxicity call", "setting": "HSkMC", "value": "inactive"}, {"measurement": "cytotoxicity call", "setting": "HepG2", "value": "inactive"}, {"measurement": "growth inhibition call", "setting": "S. aureus RN4220", "value": "inactive"}]}, {"molecule": "COc1ccc(S(=O)(=O)Nc2ccc3c(c2)CC(=O)N([C@@H](C)CO)C[C@@H](C)[C@@H](CN(C)Cc2ccc(C(=O)O)cc2)O3)cc1", "values": [{"measurement": "cytotoxicity call", "setting": "HSkMC", "value": "inactive"}, {"measurement": "cytotoxicity call", "setting": "HepG2", "value": "inactive"}, {"measurement": "growth inhibition call", "setting": "S. aureus RN4220", "value": "inactive"}]}, {"molecule": "O=C(C[C@@H]1CC[C@H]2[C@@H](COC[C@H](O)CN2S(=O)(=O)c2ccc(Cl)cc2)O1)NCCN1CCCC1", "values": [{"measurement": "cytotoxicity call", "setting": "HSkMC", "value": "inactive"}, {"measurement": "cytotoxicity call", "setting": "HepG2", "value": "inactive"}, {"measurement": "growth inhibition call", "setting": "S. aureus RN4220", "value": "inactive"}]}, {"molecule": "Cc1nsc(-c2ccccc2)n1", "values": [{"measurement": "cytotoxicity call", "setting": "HSkMC", "value": "inactive"}, {"measurement": "cytotoxicity call", "setting": "HepG2", "value": "inactive"}, {"measurement": "growth inhibition call", "setting": "S. aureus RN4220", "value": "inactive"}]}, {"molecule": "Cc1ccc(S(=O)(=O)N[C@H]2CC[C@H](CC(=O)N3CCC(Cc4ccccc4)CC3)O[C@H]2CO)cc1", "values": [{"measurement": "cytotoxicity call", "setting": "HSkMC (human skeletal muscle cells)", "value": "inactive"}, {"measurement": "cytotoxicity call", "setting": "HepG2", "value": "inactive"}, {"measurement": "growth inhibition call", "setting": "S. aureus RN4220", "value": "inactive"}]}]}
